These results are taken from the supplement of paper PMC10723795.

For the test, the system named is RPE1. Kind of test: nucleolar normality score relative to DMSO (fraction of DMSO control); RPE1 is a non-cancer human cell line; higher = more normal nucleoli (less nucleolar stress). The settings on record: 24 h.

Where a name gives a salt, the structure may show the parent alone. Some of the results follow.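 How the source made its calls: active = more than 2 SD below the DMSO mean: under 0.85 at 10 µM or 0.885 at 1 µM; inactive = the rest.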 Single values are uncertain, as repeats are few or missing. *1 amine or outer side, *2 acyl side, *3 side chain or, on linkers, in order; H or OH if unused. Where a SMILES comes first, the peptide text is derived from it. Bridges are numbered along the chain shown (N, C = ends). Roman numbers before positions name the chains, in order. [ ]: non-standard residue; d: D form. Hexamethylenediamine = C(CCCN[*:2])CCN[*:1]; Dip = N[CH](C(=O)O)C(c1ccccc1)c1ccccc1; Chg = N[CH](C(=O)O)C1CCCCC1; NMeA = CN[CH](C)C(=O)O
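Further: fixed cells immunolabelled for nucleolin and UBF, 40 image fields per well in 384-well plates, per-cell score = nucleolin nucleolar/nucleoplasm intensity ratio divided by the matching UBF ratio.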

For `COc1ccc(S(=O)(=O)NCc2ccc(C(=O)NCCc3ccc(Cl)cn3)cc2)cc1`, the nucleolar normality score reads like this: (1 µM) inactive: 1.03; (10 µM) inactive: 1.01.
Turning to `C=CC(=O)N1CC(=Cc2ccc([N+](=O)[O-])cc2)C(=O)C(=Cc2ccc([N+](=O)[O-])cc2)C1`, the nucleolar normality score runs as follows: (1 µM) active: 0.524; (10 µM) active: 0.587.
Take `C=C1C[C@@]23CC[C@H]4[C@@](C)(CCC[C@@]4(C)C(=O)O[C@@H]4O[C@H](CO)[C@@H](O)[C@H](O)[C@H]4O)[C@@H]2CC[C@]1(O[C@@H]1O[C@H](CO)[C@@H](O)[C@H](O)[C@H]1O[C@@H]1O[C@H](CO)[C@@H](O)[C@H](O)[C@H]1O)C3` [Stevioside]: the nucleolar normality score runs as follows: (1 µM) inactive: 1.06; (10 µM) inactive: 1.05.
As to `N#CC(=Cc1ccc(O)c(O)c1)C(=O)NCc1ccccc1` [AG-490 (Tyrphostin B42)], the nucleolar normality score runs as follows: (1 µM) inactive: 1.03; (10 µM) inactive: 1.04.
As to `COc1ccccc1-c1cc(Nc2cccc(CS(N)(=O)=O)c2)ncn1`, the nucleolar normality score reads like this: (1 µM) inactive: 0.982; (10 µM) inactive: 1.06.
With `CC1(COc2ccc3c(c2)ncn3-c2ccc3cccc(N4CCC(N)CC4)c3n2)COC1`, the nucleolar normality score is, setting by setting: (1 µM) inactive: 1.01; (10 µM) inactive: 1.03.
The corresponding values for `C[C@@H](Oc1cc(-n2cnc3ccc(CN4CCN(C)CC4)cc32)sc1C(N)=O)c1ccccc1C(F)(F)F` are inactive: 1.01 and inactive: 0.902.
For `Cc1cccc(C)c1NC(=O)C1CCCCN1C` (stereo unspecified) [Mepivacaine], the nucleolar normality score reads like this: (1 µM) inactive: 1.1; (10 µM) inactive: 1.07.
`FC(F)(F)c1ccc(CNc2ccc(Cc3c[nH]c4ncc(Cl)cc34)cn2)cn1` [Pexidartinib (PLX3397)]: the nucleolar normality score (1 µM) is inactive: 1.06 and the nucleolar normality score (10 µM) is inactive: 1.05.
`CC(C)[C@H](CO)Nc1nc(Nc2cccc(Cl)c2)c2ncn(C(C)C)c2n1` [Purvalanol A]: the nucleolar normality score is inactive: 1 (1 µM) and inactive: 1.04 (10 µM).
With `CNC(C)C(=O)NC(C(=O)N1CCCC1C(=O)NC(C(=O)NCCCCCCNC(=O)C(NC(=O)C1CCCN1C(=O)C(NC(=O)C(C)NC)C1CCCCC1)C(c1ccccc1)c1ccccc1)C(c1ccccc1)c1ccccc1)C1CCCCC1` (stereo unspecified) (I: H-[NMeA][Chg]P[Dip] / II: H-[NMeA][Chg]P[Dip]; linker I:C-II:C via Hexamethylenediamine; configuration not given here), the nucleolar normality score (1 µM) was inactive: 1.03 and the nucleolar normality score (10 µM) is inactive: 1.01.
The corresponding values for `CC(=O)c1cc([N+](=O)[O-])c(Sc2cccc(Cl)c2Cl)s1` are inactive: 0.998 and inactive: 1.02.
Take `CNC(=O)c1ccc(-c2cnc3ncc(Cc4ccc5ncccc5c4)n3n2)cc1F`: the nucleolar normality score is inactive: 0.96 (1 µM) and inactive: 0.934 (10 µM).
As for `O=C(NCc1ccncc1)C12CC3CC(C1)CC(c1ccc(Cl)cc1)(C3)C2`, the nucleolar normality score is inactive: 1.02 (1 µM) and inactive: 1.1 (10 µM).
For `COc1ccc(-c2cnc3c(-c4cccc5ncccc45)cnn3c2)cc1`, the nucleolar normality score runs as follows: (1 µM) inactive: 0.963; (10 µM) inactive: 0.909.
The corresponding values for `COc1cc2ncnc(Oc3cccc(NC(=O)Nc4cc(C(C)(C)C(F)(F)F)on4)c3)c2cc1OC` are inactive: 1.04 and inactive: 0.937.
Turning to `COc1cc2c(cc1OC(C)C)[C@H](c1ccc(Cl)cc1)N(c1ccc(N(C)C[C@H]3CC[C@H](N4CCN(C)C(=O)C4)CC3)cc1)C(=O)C2`, the nucleolar normality score is inactive: 0.911 (1 µM) and inactive: 0.914 (10 µM).
The corresponding values for `CCc1cncnc1N1CCN(Cc2nc3ccc(C(F)(F)F)cc3[nH]2)CC1` are inactive: 0.999 and inactive: 1.04.
Consider `CN[C@H]1CN(c2ccc3c(=O)c(C(=O)O)cn(-c4nccs4)c3n2)C[C@@H]1OC` [Voreloxin (SNS-595) hydrochloride], for which the nucleolar normality score is inactive: 1.01 (1 µM) and inactive: 1.01 (10 µM).
For `CCCCOc1c(C(=O)c2c(F)cc(C)cc2F)c[nH]c2nncc1-2`, the nucleolar normality score by setting is: (1 µM) inactive: 0.997; (10 µM) inactive: 1.09.
In the case of `Nc1ccccc1NC(=O)c1ccc(CNC(=O)OCc2cccnc2)cc1` [Entinostat (MS-275)], the nucleolar normality score (1 µM) is inactive: 1 and the nucleolar normality score (10 µM) was inactive: 1.08.
The corresponding values for `CN(C)CC[C@H](CSc1ccccc1)Nc1ccc(S(=O)(=O)NC(=O)c2ccc(N3CCN(Cc4ccccc4-c4ccc(Cl)cc4)CC3)cc2)cc1[N+](=O)[O-]` are inactive: 0.931 and inactive: 0.987.
For the compound `Nc1ncn([C@H]2C[C@H](O)[C@@H](CO)O2)c(=O)n1` [Decitabine], the nucleolar normality score reads like this: (1 µM) inactive: 1.03; (10 µM) inactive: 1.06.
Regarding `O=C(Cc1ccc(-c2ccc(OCCN3CCOCC3)cc2)cn1)NCc1ccccc1`, the nucleolar normality score by setting is: (1 µM) active: 0.826; (10 µM) active: 0.755.
Turning to `O=c1cc(-c2ccc(O)c(O)c2)oc2cc(O)cc(O)c12` [Luteolin], the nucleolar normality score was inactive: 1.06 (1 µM) and inactive: 1.13 (10 µM).
The corresponding values for `O=C(NOCCO)c1ccc2cncn2c1Nc1ccc(I)cc1F` are inactive: 1.04 and inactive: 1.04.
With `CCOc1cc(C(=O)N2CCC(N3CCN(C)CC3)CC2)ccc1Nc1ncc2c(n1)N(C1CCCC1)c1ccccc1C(=O)N2C`, the nucleolar normality score (1 µM) was inactive: 1.03 and the nucleolar normality score (10 µM) was inactive: 1.01.
Regarding `CC(C)N(CCCNC(=O)Nc1ccc(C(C)(C)C)cc1)C[C@H]1O[C@@H](n2ccc3c(N)ncnc32)[C@H](O)[C@@H]1O`, the nucleolar normality score runs as follows: (1 µM) inactive: 0.899; (10 µM) active: 0.81.
Take `CCS(=O)(=O)Nc1ccc2[nH]c(O)c(C(=Nc3ccc(CN4CCCCC4)cc3)c3ccccc3)c2c1` [Hesperadin]: the nucleolar normality score runs as follows: (1 µM) inactive: 1.01; (10 µM) active: 0.824.
The corresponding values for `Cc1cc(Nc2ccc(NC(=O)c3ccc(Nc4ccnc5ccccc45)cc3)cc2)nc(N)n1` are inactive: 1.06 and inactive: 1.06.
The corresponding values for `O=c1cc(N2CCOCC2)oc2c1ccc1ccccc12` are inactive: 0.956 and inactive: 0.988.
`CN1CCN(c2ccc(-c3ccncc3-c3cc(F)c(O)c(F)c3)cc2)CC1`: the nucleolar normality score is inactive: 1.01 (1 µM) and inactive: 1.07 (10 µM).
As to `CCN(CCO)CCCOc1ccc2c(Nc3cc(CC(=O)Nc4cccc(F)c4)[nH]n3)ncnc2c1` [Barasertib (AZD1152-HQPA)], the nucleolar normality score (1 µM) was inactive: 0.928 and the nucleolar normality score (10 µM) is inactive: 0.987.
Take `C=CC(=O)N1CCC(Oc2cc3c(Nc4ccc(Cl)c(Cl)c4F)ncnc3cc2OC)CC1` [Poziotinib (HM781-36B)]: the nucleolar normality score reads like this: (1 µM) inactive: 1.05; (10 µM) inactive: 1.07.
For `CO[C@@H](C(=O)N1Cc2[nH]nc(NC(=O)c3ccc(N4CCN(C)CC4)cc3)c2C1)c1ccccc1` the same measures were inactive: 0.998 and inactive: 0.977.
Turning to `Cn1ncc(Cl)c1-c1cc(C(=O)N[C@H](CN)Cc2cccc(F)c2)sc1Cl`, the nucleolar normality score (1 µM) is active: 0.483 and the nucleolar normality score (10 µM) was active: 0.407.
Regarding `CC(C)(C)C[C@@H]1N[C@@H](C(=O)N[C@H]2CC[C@H](O)CC2)[C@H](c2cccc(Cl)c2F)[C@]12C(=O)Nc1cc(Cl)ccc12`, the nucleolar normality score (1 µM) is inactive: 1.05 and the nucleolar normality score (10 µM) is inactive: 1.02.
For `O=C(O)c1cc(O)c2c(c1)[C@@H]([C@H]1c3cc(C(=O)O)cc(O)c3C(=O)c3c(O[C@@H]4O[C@H](CO)[C@@H](O)[C@H](O)[C@H]4O)cccc31)c1cccc(O[C@@H]3O[C@H](CO)[C@@H](O)[C@H](O)[C@H]3O)c1C2=O` [Sennoside B] the same measures were inactive: 0.974 and inactive: 0.878.
As to `COc1c(O[C@@H]2O[C@H](CO)[C@@H](O)[C@H](O)[C@H]2O)cc2occ(-c3ccc(O)cc3)c(=O)c2c1O` [Tectoridin], the nucleolar normality score (1 µM) was inactive: 0.98 and the nucleolar normality score (10 µM) was inactive: 0.856.
Take `CCC[C@H](Nc1nc(-c2ccc(NC(=O)NCC)c(OC)c2)ncc1C)c1cccnc1` [Lexibulin (CYT997)]: the nucleolar normality score (1 µM) was active: 0.833 and the nucleolar normality score (10 µM) was inactive: 0.945.
Consider `COc1cc(Nc2ncc(F)c(Nc3ccc4c(n3)NC(=O)C(C)(C)O4)n2)cc(OC)c1OC` [R406 (free base)], for which the nucleolar normality score was inactive: 0.909 (1 µM) and inactive: 0.923 (10 µM).
Consider `COc1ccc(C(=O)Nc2sc3c(c2C(N)=O)CCCC3)cc1OC`, for which the nucleolar normality score is active: 0.802 (1 µM) and inactive: 1.04 (10 µM).
With `Cc1ccc(NC(=O)c2ccc(CN3CC[C@H](N(C)C)C3)c(C(F)(F)F)c2)cc1Nc1nccc(-c2cncnc2)n1` [Bafetinib (INNO-406)], the nucleolar normality score runs as follows: (1 µM) inactive: 1.08; (10 µM) inactive: 1.06.
As for `Cn1c(=O)c2c(ncn2CC(=O)O)n(C)c1=O` [Theophylline-7-acetic acid], the nucleolar normality score is, setting by setting: (1 µM) inactive: 1.06; (10 µM) inactive: 0.905.
Consider `CS(=O)(=O)c1cccc(CNc2nc(Nc3ccc4c(c3)CCC(=O)N4)ncc2C(F)(F)F)c1`, for which the nucleolar normality score by setting is: (1 µM) inactive: 0.96; (10 µM) inactive: 1.02.
In the case of `CC(C)(C)n1nc(-c2ccc(Cl)cc2)c2c(N)ncnc21`, the nucleolar normality score (1 µM) was inactive: 0.992 and the nucleolar normality score (10 µM) was active: 0.825.
Regarding `CC1(C)CCC(CN2CCN(c3ccc(C(=O)NS(=O)(=O)c4ccc(NCC5CCOCC5)c([N+](=O)[O-])c4)c(Oc4cnc5[nH]ccc5c4)c3)CC2)=C(c2ccc(Cl)cc2)C1` [Venetoclax (ABT-199, GDC-0199)], the nucleolar normality score was inactive: 1.1 (1 µM) and inactive: 1.09 (10 µM).
`O=C(O)CC[C@H]1CC[C@@](c2cc(F)ccc2F)(S(=O)(=O)c2ccc(Cl)cc2)CC1`: the nucleolar normality score (1 µM) is inactive: 1.02 and the nucleolar normality score (10 µM) was inactive: 0.894.
For `COc1ccc(CCNCc2ccc(OCc3ccc(Cl)nc3)c(OC)c2)cc1OC` the same measures were inactive: 0.921 and inactive: 1.03.
Consider `CS(=O)(=O)CCNCc1ccc(-c2ccc3ncnc(Nc4ccc(OCc5cccc(F)c5)c(Cl)c4)c3c2)o1` [Lapatinib], for which the nucleolar normality score was inactive: 1.04 (1 µM) and inactive: 1.14 (10 µM).
`CS(=O)(=O)CCNCc1ccc(-c2ccc3ncnc(Nc4ccc(OCc5cccc(F)c5)c(Cl)c4)c3c2)o1`: the nucleolar normality score (1 µM) is inactive: 1.05 and the nucleolar normality score (10 µM) is inactive: 1.09.
For the compound `C=CC(=O)Nc1cccc(Nc2nc(Nc3ccc(N4CCN(C(C)=O)CC4)cc3OC)ncc2C(F)(F)F)c1` [Rociletinib (CO-1686, AVL-301)], the nucleolar normality score is inactive: 1.01 (1 µM) and inactive: 1.05 (10 µM).
For the compound `C/C(=N\NC(=O)c1cccc(S(=O)(=O)N2CCOCC2)c1)c1cc(Cl)ccc1O`, the nucleolar normality score was inactive: 0.995 (1 µM) and inactive: 0.924 (10 µM).
